Each structure is given as a SMILES string. The campaign covered roughly 48,000 compounds. About 120 (0.25%) were called active. Inconclusive results (about 4%) are left out. The call rests on the fitted dose curve; in most records, active means well fitted activation curve with a large enough effect; inconclusive means small, poorly fitted or top-dose-only effect, or another doubt; inactive means no such curve, though single readings can be large or run the other way. This is one part of the list.

The assay can be described thus: Primary qHTS for Identification of Small Molecule Activators of Huntingtin-Antisense Promoter Activity. Further: nearly all actives have a fitted effect of over 55% in size. The note with it: HEK293 HTT-AS promoter firefly luciferase reporter (activity 0% = vehicle and -100% = no light), 24 h; series mostly up to 57.5 µM; activity change, positive = activation: at the top concentration. In short, it runs like this: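 HEK293 Fluc reporter, 2,500 cells/well, 24 h pre-culture; cpds up to 57.5 uM final, 24 h 37 degrees C; Dual-Glo, 10 min RT; normalized vehicle = 0%, zero RLU = -100%.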
Take `CC1CCCN(c2ncnc3c2nnn3C)C1` (centres undefined): the “activity change, positive = activation” value is inactive: 27.5%.

`CCCOC(=O)c1cccc(Nc2nc(C(=O)OCC)nc3ccccc23)c1`: the “activity change, positive = activation” value was inactive: -50.7%. Consider `O=C(Nc1ccc(C(F)(F)F)cc1)C1(c2cccs2)CCOCC1`, for which the “activity change, positive = activation” value is inactive: -17.6%. In the case of `CCC1CN(C(=O)N2CCC(C(=O)NCc3ccccc3F)CC2)c2ccccc2O1` (centres undefined), the “activity change, positive = activation” value is inactive: -23%. Regarding `CCOc1ccc(NC(=O)c2cc(S(=O)(=O)N3CCC(C)CC3)cn2C)cc1`, the “activity change, positive = activation” value is inactive: -14.4%.

On to `COc1ccc(CNC(=O)Cc2ccc(NC(=O)N3CCCCc4ccccc43)cc2)cc1`, for which the “activity change, positive = activation” value was inactive: -17.6%. Regarding `Cc1ccc(NC(=O)c2c(C)oc3ncnc(N4CCCCC4)c23)c(C)c1`, the “activity change, positive = activation” value was inactive: -26.7%. For the compound `CC(Oc1ccccc1F)C(=O)NCC1(N2CCOCC2)CCCCC1` (centres undefined), the “activity change, positive = activation” value was inactive: -20.6%.

Turning to `Cc1cc(C)cc(NC(=O)c2cc(S(=O)(=O)N3CCCCC3)c[nH]2)c1`, the “activity change, positive = activation” value was inactive: -15.8%. Take `CC(C)CN(CC(C)C)c1nnc(NC(=O)Nc2cccc(C(F)(F)F)c2)s1`: the “activity change, positive = activation” value is inactive: -9.22%. Turning to `COc1ccc(OCC(=O)Nc2ccc3c(c2)N(C)C(=O)c2ccccc2S3)cc1`, the “activity change, positive = activation” value is inactive: -35.5%.

Take `CCOc1ccc(CNC(=O)c2ccc(Sc3ccc(C)cc3)c(N)c2)cc1OC`: the “activity change, positive = activation” value was inactive: -40.8%. Turning to `COc1ccc(-c2cc(C(=O)Nc3c(C(=O)c4ccc(C)c(F)c4)oc4ccccc34)no2)cc1`, the “activity change, positive = activation” value is inactive: 17.9%. In the case of `Cc1ccc2nc(Cl)c3cc(C(=O)N4CCCC(C)C4)sc3c2c1` (centres undefined), the “activity change, positive = activation” value is inactive: -14.4%. Turning to `CCn1c(=O)c2cc(C(=O)NCCc3ccc(OC)c(OC)c3)sc2c2ccccc21`, the “activity change, positive = activation” value is inactive: -41.8%. Consider `COC(=O)CSc1nnc(-c2cccc(O)c2)o1`, for which the “activity change, positive = activation” value was inactive: -2.7%. `COC(=O)Cn1c(SCCOc2ccccc2Cl)nc2ccccc21`: the “activity change, positive = activation” value was inactive: -5.59%.

As to `O=C(CCS(=O)(=O)c1nc(-c2ccc3c(c2)OCO3)cc(C(F)(F)F)n1)Nc1ccccc1C(F)(F)F`, the “activity change, positive = activation” value is inactive: -25.9%.

Take `COc1ccc(C(C)=O)cc1CSc1nc(NCc2ccc(Cl)cc2)c2ccccc2n1`: the “activity change, positive = activation” value was inactive: -6.88%. For `CCOC(=O)c1cc(-c2ccc(C)cc2)n(CC(=O)Nc2cc(C)ccc2C)c1C`, the “activity change, positive = activation” value was inactive: -1.32%. Turning to `COc1ccc(-c2cc(C(F)(F)F)n3nc(C(=O)Nc4cccc(Cl)c4Cl)cc3n2)cc1OC`, the “activity change, positive = activation” value was inactive: -16%. Turning to `CC1=C(C(=O)Nc2ccc(C)cc2C)C(c2cc(Br)ccc2F)n2ncc(C(=O)Nc3ccc(C)cc3)c2N1` (centres undefined), the “activity change, positive = activation” value is inactive: -20.4%. Turning to `CCc1ccccc1NC(=O)c1cc(S(=O)(=O)N2CCC(C)CC2)cn1C`, the “activity change, positive = activation” value is inactive: -19.4%. Turning to `CC(=O)Nc1sc2c(c1-c1nc3ccccc3s1)CNC2`, the “activity change, positive = activation” value was inactive: -40.3%. With `COc1ccc(-c2cc(C(F)(F)F)n3nc(C(=O)Nc4ccc(Cl)cc4C(F)(F)F)cc3n2)cc1OC` the figure was inactive: 6.37%; with `Cc1cccc(C)c1NC(=O)Cn1c(=O)n(CCC(=O)NCc2ccc3c(c2)OCO3)c(=O)c2sccc21`, inactive: -13.5%; with `COc1ccc(C(=O)N2CCN(CCc3ccccn3)CC2)cc1`, inactive: -9.54%. For the compound `Cc1oc(-c2ccccc2)nc1Cn1c(=O)cc(-c2ccccc2)c2c(C)nn(C)c21`, the “activity change, positive = activation” value was inactive: -19.3%. Regarding `Cc1ccc(NC(=O)c2cnc(SCC(=O)N3CCCc4ccccc43)n(C)c2=O)cc1C`, the “activity change, positive = activation” value is inactive: -6.32%. Regarding `Cc1cccc(NC(=O)c2cc3c(C)nn(-c4ccccc4)c3s2)c1`, the “activity change, positive = activation” value is inactive: -16.7%. Regarding `O=C(NCc1ccc2c(c1)CCN2C(=O)c1ccncc1)c1cccc(F)c1`, the “activity change, positive = activation” value is inactive: 11.7%. With `CCOC(=O)c1[nH]c(C)c(C(=O)NCc2ccccc2Cl)c1C` the figure was inactive: -17.7%. On to `O=C(CCc1nnc2n(Cc3ccccc3Cl)c(=O)c3ccccc3n12)Nc1ccccc1`, for which the “activity change, positive = activation” value is inactive: -2.44%. On to `COc1ccc(NC(=O)c2ccc(-c3nc(CSc4ccccc4)c(C)o3)cc2)c(OC)c1`, for which the “activity change, positive = activation” value was inactive: -14.6%. Consider `CCCCN(c1ccccc1)S(=O)(=O)c1cc2c3c(c1)C(C)C(=O)N3CCC2` (centres undefined), for which the “activity change, positive = activation” value is inactive: -29.7%. Consider `CCOc1ccc(NC(=O)Cn2cc(C(=O)c3ccccc3)c(=O)c3cc(OC)ccc32)cc1`, for which the “activity change, positive = activation” value was inactive: -18.1%. Take `CCN1C(=O)c2ccccc2S(=O)c2ccc(C(=O)N3CCN(c4cccc(Cl)c4)CC3)cc21` (centres undefined): the “activity change, positive = activation” value is inactive: -43.3%. For `COC(=O)c1cc(NC(=O)CCc2c(C)nc3nc(C)nn3c2C)cc(C(=O)OC)c1` the value was inactive: -12%; for `O=C(Cc1ccc(F)cc1)NCCc1csc2nc(-c3ccc(Cl)cc3)nn12`, inactive: -27.2%.

`CCCCn1c(SCc2ccccc2C#N)nc2c(sc3ccccc32)c1=O`: the “activity change, positive = activation” value is inactive: -1.2%. With `Cc1ccc(-n2ncc3c(=O)n(Cc4cccc(C(F)(F)F)c4)cnc32)cc1C` the figure was inactive: -10.6%. Turning to `CC1=C(C(=O)Nc2ccccc2C)C(c2ccc[nH]2)n2ncnc2N1` (centres undefined), the “activity change, positive = activation” value is inactive: -0.309%. Take `CCOC(=O)Cn1c(=O)cc(C)c2c(C)nn(-c3cccc(F)c3)c21`: the “activity change, positive = activation” value is inactive: -14.6%. With `Cc1ccc2c(c1)-c1onc(C(=O)N(C)c3ccc(F)cc3)c1CO2` the figure was inactive: 11.9%; with `Cc1ccc(CNC(=O)CCCn2nc(C)n3c(cc4sccc43)c2=O)cc1`, inactive: 2.33%. For the compound `COc1cccc(C(=O)c2cn(CC(=O)Nc3ccc4c(c3)OCCO4)c3nc(C)ccc3c2=O)c1`, the “activity change, positive = activation” value is inactive: -18.6%. With `Cc1ccc(NC(=O)NCc2c(-n3cccc3)sc3c2CCCC3)c(Cl)c1`, the “activity change, positive = activation” value was inactive: -4.62%. For the compound `CCC(=O)N1CCc2cc(S(=O)(=O)NC(CC(C)C)C(=O)NCc3cccc(OC)c3)ccc21` (centres undefined), the “activity change, positive = activation” value is inactive: -6.36%. For the compound `CCOC(=O)c1cccc(NC(=O)NC2COc3ccccc3C2)c1` (centres undefined), the “activity change, positive = activation” value is inactive: -20.5%.

The values are drawn from PubChem BioAssay AID1508624 (National Center for Advancing Translational Sciences (NCATS), 2021).
